Results on 31 molecules are retold here after PubChem BioAssay AID1745853 (National Center for Advancing Translational Sciences (NCATS), 2022).

Experiment in all cases: Primary Screen for Target Class Profiling of Small Molecule Inhibitors of Methyltransferases
Experiment [1] concerns the target Glycine N-methyltransferase (Homo sapiens) (UniProt Q14749). The conditions noted are these: purified enzyme, MTase-Glo SAH luminescence; measured here: GNMT inhibition; at 40 µM; stronger effect = lower value. The procedure, abridged: (§1)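 Each enzyme was reacted with SAM and its substrate, with compounds tested once at 40 uM; SAH formed was read by MTase-Glo luminescence.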

For experiment [2], the target named is Guanidinoacetate N-methyltransferase (Homo sapiens) (UniProt Q14353). The conditions noted are these: purified enzyme, MTase-Glo SAH luminescence; measured here: GAMT inhibition; at 40 µM; stronger effect = lower value. In a few lines:
as §1

Experiment [3] deals with Histamine N-methyltransferase (Homo sapiens) (UniProt P50135). Particulars: purified enzyme, MTase-Glo SAH luminescence; measured here: HNMT inhibition; at 40 µM; stronger effect = lower value. In a few lines: as §1
Experiment [4] deals with Nicotinamide N-methyltransferase (Homo sapiens) (UniProt P40261). The conditions noted are these: purified enzyme, MTase-Glo SAH luminescence; measured here: NNMT inhibition; at 40 µM; stronger effect = lower value. The procedure, abridged: as §1
The target of experiment [5] is Phenylethanolamine N-methyltransferase (Homo sapiens) (UniProt P11086). The conditions noted are these: purified enzyme, MTase-Glo SAH luminescence; measured here: PNMT inhibition; at 40 µM; stronger effect = lower value. The procedure, abridged: as §1

This is one part of the list. Shown are side measurements of this screen, not its main read-out; they come without a call.
On the % scale 0 is the no-effect control and ±100 the full control effect.

On to `Cc1ccc(Cn2c(=O)c3ccccc3n3c(-c4ccc(F)c(F)c4)nnc23)cc1`, for which the activity change, negative = inhibition in experiment [1] is -6.4%; in experiment [2], 3.03%; in experiment [3], 3.55%; in experiment [4], 4.94%; in experiment [5], -3.57%.
The like results for `COc1ccccc1CN1CCCC(CN(CCN(C)C)C(=O)c2ccccc2OC)C1` (stereo not drawn) were, in that order, -2.43%, -2.55%, -4.39%, -7.73% and 14.9%.
The corresponding values for `CC(=O)CC(=O)Nc1ccc(Cl)c(C(F)(F)F)c1` are -4.25%, 7.67%, -3.66%, -16.3% and -13.4%.
Regarding `CN(CCCN1c2ccccc2CCc2ccccc21)C(=O)C1CNCCO1` (stereo not drawn), the activity change, negative = inhibition in experiment [1] was -6.94%; in experiment [2], -4.78%; in experiment [3], -5.75%; in experiment [4] it was -16.7%; in experiment [5], -4.32%.
Consider `Cc1ccc(CCNC(=O)CCc2nnc3n(Cc4ccccc4)c(=O)c4ccccc4n23)cc1`, for which the activity change, negative = inhibition in experiment [1] was -4.83%; in experiment [2], 2.62%; in experiment [3] it was 9.84%; in experiment [4], 13.5%; in experiment [5] it was 3.58%.
Consider `CN1CCN(C2=Nc3ccccc3Nc3ccc(OS(=O)(=O)C(F)(F)F)cc32)CC1`, for which the activity change, negative = inhibition in experiment [1] was -4.7%; in experiment [2], -3.9%; in experiment [3] it was 6.02%; in experiment [4], -22.7%; in experiment [5] it was -0.888%.
In the case of `COC(=O)Cn1c(=O)oc2cc(S(=O)(=O)NCCN3CCC(C)CC3)ccc21`, the activity change, negative = inhibition in experiment [1] is 4.23%; in experiment [2], 0%; in experiment [3] it was 1.68%; in experiment [4], 6.78%; in experiment [5], 2.59%.
As for `CCC(C)NC(=O)c1ccc2c(=O)n(CC(C)C)c3nn(Cc4cccc(OC)c4)c(=O)n3c2c1` (stereo not drawn), the activity change, negative = inhibition in experiment [1] came to 3.61%; in experiment [2], 0.61%; in experiment [3], 8.43%; in experiment [4] it was 2.73%; in experiment [5], 8.66%.
Take `CC1CCN(CCNS(=O)(=O)c2ccc3c(c2)oc(=O)n3C)CC1`: the activity change, negative = inhibition was 4.26% in experiment [1]; 13.6% in experiment [2]; -26.7% in experiment [3]; 13.7% in experiment [4]; 0.18% in experiment [5].
The like results for `COc1ccc(N2CC3CCC(C2)N3CC2CCCC2)cc1` were, in that order, -3.85%, -4.5%, -22.1%, -8.61% and -18.9%.
As to `COc1cccc(-c2cc(C3CCN(C(=O)Nc4ccccc4C(F)(F)F)CC3)[nH]n2)c1`, the activity change, negative = inhibition in experiment [1] is -6.38%; in experiment [2], 0.028%; in experiment [3] it was -2.59%; in experiment [4] it was -6.89%; in experiment [5], -4.76%.
Regarding `O=C(NCCCCN1CCN(c2cccc(Cl)c2Cl)CC1)c1cc2ccccc2s1`, the activity change, negative = inhibition in experiment [1] is -0.797%; in experiment [2], 0.624%; in experiment [3] it was 0.017%; in experiment [4], -26.4%; in experiment [5] it was -24.2%.
`Cc1cccc(=O)n1CCC(=O)NCc1cc2n(n1)CCN(C(=O)N(C)C)C2`: the activity change, negative = inhibition in experiment [1] was -3.51%; in experiment [2], 0.24%; in experiment [3] it was 1.84%; in experiment [4], -1.84%; in experiment [5], 0.164%.
With `O=C1Nc2ccccc2C2(CCN(C(=O)c3ccccc3F)C2)O1` (stereo not drawn), the activity change, negative = inhibition was -30.4% in experiment [1]; -7.29% in experiment [2]; -5.51% in experiment [3]; -21.9% in experiment [4]; -17.8% in experiment [5].
Turning to `O=C(NCc1cccc(Cl)c1)c1sc(=S)n2c1[nH]c(=O)c1cc3c(cc12)OCO3`, the activity change, negative = inhibition in experiment [1] was -63.2%; in experiment [2], -1.03%; in experiment [3] it was -4.81%; in experiment [4] it was -74.7%; in experiment [5] it was -59.9%.
The like results for `Cc1ccc(CC(=O)N2CCC3(C2)C(=O)N(C)c2ccccc23)cc1` (stereo not drawn) were, in that order, -5.01%, -2.65%, -2.63%, -2.96% and 1.03%.
For the molecule `Fc1ccc2c(CCNCc3cccc(OCC(F)(F)C(F)F)c3)c[nH]c2c1`, the activity change, negative = inhibition in experiment [1] was -4.26%; in experiment [2] it was 4.39%; in experiment [3] it was -53%; in experiment [4], -19.1%; in experiment [5] it was -10.2%.
Turning to `O=C(Cn1nc2n(Cc3ccccc3)c(=O)c3ccccc3n2c1=O)Nc1cc(F)ccc1F`, the activity change, negative = inhibition in experiment [1] amounted to 5.89%; in experiment [2] it was 0.886%; in experiment [3], 6.38%; in experiment [4], 0.621%; in experiment [5] it was 6.37%.
Regarding `CC(Sc1nc2c(cnn2-c2cccc(Cl)c2)c(=O)[nH]1)C(N)=O` (stereo not drawn), the activity change, negative = inhibition in experiment [2] was -22.6%; in experiment [4] it was -30.5%; in experiment [5] it was -27%.
Take `CCC(C)NC(=O)c1ccc2c(=O)n(C(C)C)c3nn(Cc4ccccc4)c(=O)n3c2c1` (stereo not drawn): the activity change, negative = inhibition is -4.82% in experiment [1]; -1.82% in experiment [2]; 7.78% in experiment [3]; -7.8% in experiment [4]; -4.16% in experiment [5].
`CC(c1cccc(-c2cccc(C(=O)N(C)C)n2)c1)N1CCCC1` (stereo not drawn): the activity change, negative = inhibition in experiment [1] is -5.88%; in experiment [2] it was -11.2%; in experiment [3] it was -7.13%; in experiment [4], -16.1%; in experiment [5], -16.7%.
For the molecule `O=C(NC1CCCCC1)c1ccc2nnc(Cc3ccc(Cl)cc3)n2c1`, the activity change, negative = inhibition in experiment [1] was -7.18%; in experiment [2], -0.218%; in experiment [3], -31.4%; in experiment [4], -10.1%; in experiment [5] it was 0.713%.
For the molecule `CC(C)=CCc1c(O)cc2oc3cc(C)cc(O)c3c2c1C`, the activity change, negative = inhibition in experiment [1] is -3.22%; in experiment [2], -0.636%; in experiment [3], -2.25%; in experiment [4], -10.8%; in experiment [5], -0.173%.
Take `Cc1cc(C)c2c(N)c(C(=O)NCc3ccc(Cl)cc3)sc2n1`: the activity change, negative = inhibition is -21% in experiment [1]; 0.479% in experiment [2]; -38.2% in experiment [3]; -14.6% in experiment [4]; -1.89% in experiment [5].
The like results for `COc1ccc(OC)c2c1cc1n2CC(C)(C(=O)NC2CCCCC2)N(Cc2ccc(C)cc2)C1=O` (stereo not drawn) were, in that order, -19%, -0.482%, -6.06%, -11.8% and -14.3%.
The like results for `CCNS(=O)(=O)c1ccc(Cl)c(-c2nnc(-c3ccccc3)o2)c1` were, in that order, -15.6%, 1.34%, 3.93%, -2.16% and -0.986%.
With `C=CCN1CCN(C(=O)c2ccc3c(c2)C(O)CCCCCN3CCOC)CC1` (stereo not drawn), the activity change, negative = inhibition is -0.283% in experiment [1]; -3.68% in experiment [2]; -1.47% in experiment [3]; -6.39% in experiment [4]; -8.42% in experiment [5].
For `O=C(OCCOCCO)c1ccccc1Nc1cccc(C(F)(F)F)c1`, the activity change, negative = inhibition in experiment [1] was 2.79%; in experiment [2], 17.4%; in experiment [3], 5.22%; in experiment [4] it was -6.95%; in experiment [5], 2.8%.
The like results for `CCN(CC)c1nc2c(-c3cccc(F)c3)nnn2c2ccccc12` were, in that order, -5.64%, -0.544%, -5.34%, -7.64% and -13.2%.
Turning to `CCN1C(=O)c2cc(C(=O)NCc3cccnc3)nn2CC1(C)C(=O)NC1CCCC1` (stereo not drawn), the activity change, negative = inhibition is -2.29% in experiment [1]; 0.735% in experiment [2]; -0.706% in experiment [3]; -2.04% in experiment [4]; -1.52% in experiment [5].
With `CC(C)CNC(=O)c1ccc2c(=O)n(Cc3ccccc3)c3nn(CC(=O)NC4CCCC4)c(=O)n3c2c1`, the activity change, negative = inhibition in experiment [1] is 5.63%; in experiment [2], 0.353%; in experiment [3], 11.5%; in experiment [4], -3.51%; in experiment [5] it was 3.01%.
